The whole screen tested about 420,000 compounds, of which about 64,000 (15%) were called active. The inconclusive results got no clear call from the source; some entries with a clear call stand among them for comparison. The call rests on the fitted dose curve; in most records, active means well fitted inhibition curve with a large enough effect; inconclusive means small, poorly fitted or top-dose-only effect; inactive means flat fitted curve, though single readings scatter. Potencies of inconclusive entries are left out as doubtful fits.
Assay: qHTS for Inhibitors of human tyrosyl-DNA phosphodiesterase 1 (TDP1): qHTS in cells in absence of CPT; further: nearly all actives have a fitted effect of over 55% in size
Conditions: DT40 Tdp1-/- hTDP1 cells, no CPT, ATP luminescence, 48 h; activity change, negative = growth inhibition: at 46.2 µM (top of the series)
Procedure, shortened: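 Camptothecin absent (DMSO only). Human TDP1-complemented DT40 knockout cells, 400 cells/well, 37 °C for minimum 48 hr; ATP measured via CellTiter-Glo, 30 min dark incubation, luminescence.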
For `CCC(C)NC(=O)Cn1c(COc2ccc(Cl)cc2Cl)nc2ccccc21` (stereo not drawn), the Potency was inconclusive [inhibitor, partial curve]. For `CN(C)c1ccc(C(=O)NCc2ccc3c(c2)CCN3C(=O)c2ccc(Cl)cc2)cc1`, the “activity change, negative = growth inhibition” value was inactive: -13%. For `COCC(=O)Nc1nc2ccccc2s1`, the “activity change, negative = growth inhibition” value was inactive: -12.2%. In the case of `CC(=O)Nc1cccc(-c2ccnc3c2CC(C(=O)NCc2ccc(N4CCN(C)CC4)cc2)O3)c1` (stereo not drawn), the Potency is reported as inconclusive [inhibitor, single point]. For `CCC1CCCCN1S(=O)(=O)c1ccc(C(=O)Nc2nnc(-c3cccs3)o2)cc1` (stereo not drawn), the Potency was active: 6.31 µM. In the case of `Cc1cc(NC(=O)C(C)SCC(=O)N(C)Cc2c(F)cccc2Cl)no1` (stereo not drawn), the Potency is reported as inconclusive [inhibitor, single point]. For `COc1ccc(C(=O)NCc2ccc3c(c2)CCN3C(=O)c2ccc(Cl)cc2)c(OC)c1`, the Potency was active: 18.4 µM. In the case of `Cc1ccc(C(C)(C)C)cc1S(=O)(=O)Nc1cccc(C(=O)N2CCN(c3ccccn3)CC2)c1`, the Potency is reported as active: 16.4 µM. For `c1ccc(-n2nnc(-c3cccnc3)n2)cc1`, the “activity change, negative = growth inhibition” value was inactive: -25.8%. With `O=C(NNc1nc(=O)c2cccnc2s1)c1ccccc1O` the Potency was active: 0.0164 µM. With `COc1cc(C=O)ccc1OC(=O)Nc1ccccc1` the “activity change, negative = growth inhibition” value was inactive: -5.64%. In the case of `CCOC(=O)Cn1ccc(NC(=O)COc2ccc(F)cc2F)n1`, the “activity change, negative = growth inhibition” value is reported as inactive: 3.3%. With `O=C(NC(=O)N1CCCCCC1)c1ccccc1` the “activity change, negative = growth inhibition” value was inactive: 8.53%. For `Cc1cc(C)nc(SCC(=O)Nc2ccc(S(=O)(=O)Nc3ncccn3)cc2)n1`, the “activity change, negative = growth inhibition” value was inactive: -3.7%. With `O=C(NCCC1=CCCCC1)C1CCCN(S(=O)(=O)c2cnc[nH]2)C1` (stereo not drawn) the “activity change, negative = growth inhibition” value was inactive: -2.09%. In the case of `CN(C(=O)CSc1nc(-c2ccccc2)c(-c2ccccc2)o1)C1CCS(=O)(=O)C1` (stereo not drawn), the Potency is reported as inconclusive [inhibitor, single point]. With `O=C(N/N=C/c1ccccn1)c1cccc(S(=O)(=O)Nc2ccccc2Cl)c1` the Potency was active: 16.4 µM. In the case of `CC1CC(C)CN(C(=O)COC(=O)c2ccc3c(c2)C(=O)N(Cc2ccco2)C3=O)C1` (stereo not drawn), the “activity change, negative = growth inhibition” value is reported as inactive: 5.41%. In the case of `Cc1cc(C)cc(C(=O)NCC(=O)OCC(=O)c2cc(C)n(CC(F)(F)F)c2C)c1`, the “activity change, negative = growth inhibition” value is reported as inactive: -24.3%. In the case of `Cc1ccc(N2CCN(C(C(=O)Nc3c(C)cccc3C)c3ccccc3OC(F)(F)F)CC2)cc1` (stereo not drawn), the Potency is reported as inconclusive [inhibitor, single point]. With `Cc1cc(C)n(-c2nc3ccccc3nc2N2CCN(S(=O)(=O)c3cccc(C#N)c3)CC2)n1` the Potency was inconclusive [inhibitor, partial curve]. For `COc1cc(OC)cc(C(=O)Nc2cccc(-c3cn4ccsc4n3)c2)c1`, the Potency was active: 18.4 µM. For `CCOC(=O)C1(CCOC)CCN(Cc2ccccc2-c2ccco2)CC1`, the Potency was inconclusive [inhibitor, single point]. For `Fc1cccc(Cl)c1CSc1nnc(COc2cccc3cccnc23)o1`, the “activity change, negative = growth inhibition” value was inactive: -25.6%. With `O=C(CN1CCN(Cc2ccccc2)CC1)N1CCCc2c1c(=O)oc1ccc(O)cc21` the Potency was inconclusive [inhibitor, single point]. With `CCN1CCN(S(=O)(=O)c2cc3c(cc2Cl)NC(=O)CO3)CC1` the “activity change, negative = growth inhibition” value was inactive: -9.46%. In the case of `NC1=CC(=O)C(=O)c2cccnc21`, the Potency is reported as active: 3.66 µM. With `CCCCCCCNC(=O)C1(CC2CC(c3ccccc3)=NO2)CCN(C(=O)OC(C)(C)C)CC1` (stereo not drawn) the Potency was active: 18.4 µM. For `O=C(CCc1ccccc1)Nc1ccccc1OC(=O)c1ccccc1`, the “activity change, negative = growth inhibition” value was inactive: -23.6%. In the case of `COc1cc(OC)cc(-c2c(-c3ccc(C(C)=O)cc3)c3cc(-c4cccc5[nH]ccc45)ccc3n2C)c1`, the “activity change, negative = growth inhibition” value is reported as inactive: -23.1%. In the case of `Cc1ccc2cc(C)c(SCC(=O)Nc3cc(C)on3)nc2c1`, the “activity change, negative = growth inhibition” value is reported as inactive: -2.89%. For `Cc1nc(-c2ccc(NC(=O)/C=C\C(=O)O)cc2)cs1`, the “activity change, negative = growth inhibition” value was inactive: -24.1%. For `CCOc1ccc(NC(=O)CSc2cn(CC(=O)N3CCOCC3)c3ccccc23)cc1`, the “activity change, negative = growth inhibition” value was inactive: -28.8%. With `CCOc1ccc(C2CC=C(C(C)=O)CN2S(=O)(=O)c2ccc(C)cc2)cc1` (stereo not drawn) the Potency was active: 23.1 µM. With `COc1ccc(NC(=O)C2Cc3c(-c4ccc(NC(C)=O)cc4)ccnc3O2)cn1` (stereo not drawn) the Potency was active: 11.6 µM. With `CCN(CC(=O)Nc1ccc(OC)cc1)C(=O)c1ccc2[nH]c3c(c2c1)CC(C)CC3` (stereo not drawn) the Potency was inconclusive [inhibitor, partial curve, poor fit]. With `Cn1cc(-c2nc3ccccc3[nH]2)c2ccccc21` the Potency was inconclusive [inhibitor, single point]. With `CCOC(=O)C1(Cc2cccc(Cl)c2)CCCN(C(=O)c2cc(C)n(C)n2)C1` (stereo not drawn) the Potency was inconclusive [inhibitor, single point]. In the case of `Cc1cc(N2CCN(C3CCCC3)CC2)n2c(nc3ccccc32)c1C#N`, the Potency is reported as inconclusive [inhibitor, single point]. With `COc1cc(-c2coc3c(C(=O)NCc4ccc(C(F)(F)F)cc4)cccc23)ccc1O` the Potency was active: 20.6 µM. For `O=C(c1cc(C2CC2)nn1-c1ccccc1)N1CCN(c2ccc(O)cc2)CC1`, the Potency was inconclusive [inhibitor, single point]. With `CCOCCn1c(=NC(=O)/C=C/c2ccccc2Cl)sc2cc(NC(C)=O)ccc21` the activity change, negative = growth inhibition was inconclusive: -30.3% [inhibitor]. For `CCCc1nn(C)c(C(=O)Nc2ccc(C(C)(C)C)cc2)c1Cl`, the Potency was inconclusive [inhibitor, single point]. With `COc1ccc(N2CCN(Cc3cc4c(cc3Br)OCCO4)CC2)cc1` the Potency was inconclusive [inhibitor, single point]. In the case of `COc1ccc(/C=N/Nc2nc(-c3ccc(C)cc3)c(NC(C)=O)s2)cc1OC`, the “activity change, negative = growth inhibition” value is reported as inactive: -5.23%. With `O=C(COC(=O)COc1ccccc1)NC1CCS(=O)(=O)C1` (stereo not drawn) the Potency was inconclusive [inhibitor, partial curve, poor fit]. In the case of `CCCCNC(=O)C1(C)CCCCN1C(=O)c1csnn1` (stereo not drawn), the “activity change, negative = growth inhibition” value is reported as inactive: 1.73%. With `COc1ccc(C(=O)NCc2ccc(N3CCN(C)CC3)cc2)cc1` the “activity change, negative = growth inhibition” value was inactive: -19.4%. With `NS(=O)(=O)c1ccc(Sc2ccc3ccccc3c2)nc1` the Potency was inconclusive [inhibitor, single point]. With `COc1ccccc1-c1nc(N(C)Cc2ccco2)c2ccccc2n1` the Potency was inconclusive [inhibitor, single point]. In the case of `Nc1ccc(-c2nc3ccc(N)cc3s2)cc1`, the Potency is reported as inconclusive [inhibitor, single point]. For `CCc1c(C)nc2ncnn2c1NCc1cccs1`, the Potency was active: 25.9 µM. With `CC(=O)Nc1ccc(CNc2nc3cc(-c4ccccc4C)sc3c(=O)n2C)cc1` the Potency was inconclusive [inhibitor, single point]. In the case of `O=C(NCCCn1ccnc1)C(=O)c1c[nH]c2ccccc12`, the “activity change, negative = growth inhibition” value is reported as inactive: 25.8%. For `N#CC1=C(N)C(C#N)(C#N)C(c2cccnc2)C2CC(c3ccccc3)CC=C12` (stereo not drawn), the Potency was active: 20.6 µM. For `CCn1c(C)nc2cc(C(=O)OC(C(F)(F)C(F)F)C(F)(F)C(F)F)ccc21`, the Potency was active: 18.4 µM. For `COc1ccc(NC(=O)COc2ccccc2Cc2ccccc2)cc1S(N)(=O)=O`, the Potency was active: 14.6 µM. With `CCOC(=O)N1CCN(C(=O)CCSc2ccc(C)cc2)CC1` the Potency was active: 23.1 µM. In the case of `Cc1ccc(N(CC(=O)N2CCN(c3cccc(C)c3C)CC2)S(=O)(=O)c2c(C)nn(C)c2C)cc1`, the Potency is reported as active: 9.2 µM. For `CCN(c1cc(C)cc(C)c1)S(=O)(=O)c1nnc(NC(=O)c2ccccc2C)s1`, the Potency was inconclusive [inhibitor, single point]. In the case of `O=C(COC(=O)c1cc(S(=O)(=O)N2CCOCC2)ccc1Cl)NC1CCCCC1`, the Potency is reported as inconclusive [inhibitor, partial curve]. With `Cc1c(Cl)cccc1Nc1ccccc1C(=O)O` the Potency was inconclusive [inhibitor, partial curve]. With `CC(=O)Nc1c(C)nn(-c2ccccc2)c1N1CCC(C(=O)NCc2cccc(F)c2)CC1` the “activity change, negative = growth inhibition” value was inactive: -20.2%. In the case of `O=C(C1=C[C@@H](C2CC2)C[C@@H](OCc2ccc(CO)cc2)O1)N1CCN(Cc2ccc3c(c2)OCO3)CC1`, the Potency is reported as active: 20.6 µM. In the case of `O=C(O)c1ccc(NC(CSCc2cccc(F)c2)C(=O)O)c([N+](=O)[O-])c1` (stereo not drawn), the “activity change, negative = growth inhibition” value is reported as inactive: -8.04%. In the case of `Cn1ccnc1C(O)(c1nnc(-c2ccccc2)o1)C(F)(F)F` (stereo not drawn), the “activity change, negative = growth inhibition” value is reported as inactive: -11.9%. In the case of `Cc1ccc(C(C)C)c(OCCCN2CC(C)OC(C)C2)c1` (stereo not drawn), the Potency is reported as inconclusive [inhibitor, partial curve]. For `Cc1cc(Nc2ccccc2)c2c([N+](=O)[O-])cc(C)c(C)c2n1`, the Potency was active: 23.1 µM. For `Cc1ccc(N/C=C/C(=O)c2sc(-c3ccccc3)nc2C)cc1`, the Potency was active: 23.1 µM. For `Cc1c(NC(=O)COc2ccc(C(C)C)cc2)c(=O)n(-c2ccccc2)n1C`, the “activity change, negative = growth inhibition” value was inactive: -3.33%. In the case of `CCN(CC)c1nn2c(=O)c(C(=O)NCc3ccccc3Br)cnc2s1`, the Potency is reported as inconclusive [inhibitor, single point]. With `COc1ccccc1C(=O)N1CCN(C(=O)c2oc3c(C)c(C)ccc3c2C)CC1` the Potency was active: 16.4 µM. For `COCCN(CC1CCCN(C2Cc3ccccc3C2)C1)C(=O)c1cccs1` (stereo not drawn), the Potency was inconclusive [inhibitor, partial curve]. For `S=C(NCc1ccc(Cl)cc1)Nc1ccncc1`, the Potency was inconclusive [inhibitor, full curve]. In the case of `COc1ccc(CN(C)C(=O)c2ccccc2OCc2c(C)noc2C)cc1OC`, the Potency is reported as inconclusive [inhibitor, single point]. In the case of `Cn1nc(C(=O)NCc2ccccc2Cl)c2c1-c1ccccc1SC2`, the Potency is reported as inconclusive [inhibitor, single point]. For `COCCNC(=O)c1ccc2c(=O)n(Cc3ccco3)c(SCC(=O)NC3CCCCC3)nc2c1`, the “activity change, negative = growth inhibition” value was inactive: 0.832%. In the case of `CC(=O)N1c2ccccc2N=C(c2ccc(C(F)(F)F)cc2)C1C(=O)NC1CCCC1` (stereo not drawn), the Potency is reported as inconclusive [inhibitor, single point].

Source: PubChem BioAssay AID686978 (National Center for Advancing Translational Sciences (NCATS), 2013)
On the % scale 0 is the no-effect control and ±100 the full control effect; potency means the concentration at half of the fitted maximal effect; tags describe the fitted curve by direction and shape.
